Experimental findings from article PMC4336329 (PLoS ONE, 2015) are described below.

Among all 310,000 compounds or so, about 2,200 (0.71%) showed an effect of 50% or more. The effect is printed as a negative number. Some of the results follow.

In this assay the target is human ether-à-go-go-related gene (hERG) potassium channel (human, UniProt Q12809). The assay is described as follows: primary screen, population patch clamp on CHO cells stably expressing hERG.
Sequence of human ether-à-go-go-related gene (hERG) potassium channel (Q12809 whole entry, looked up): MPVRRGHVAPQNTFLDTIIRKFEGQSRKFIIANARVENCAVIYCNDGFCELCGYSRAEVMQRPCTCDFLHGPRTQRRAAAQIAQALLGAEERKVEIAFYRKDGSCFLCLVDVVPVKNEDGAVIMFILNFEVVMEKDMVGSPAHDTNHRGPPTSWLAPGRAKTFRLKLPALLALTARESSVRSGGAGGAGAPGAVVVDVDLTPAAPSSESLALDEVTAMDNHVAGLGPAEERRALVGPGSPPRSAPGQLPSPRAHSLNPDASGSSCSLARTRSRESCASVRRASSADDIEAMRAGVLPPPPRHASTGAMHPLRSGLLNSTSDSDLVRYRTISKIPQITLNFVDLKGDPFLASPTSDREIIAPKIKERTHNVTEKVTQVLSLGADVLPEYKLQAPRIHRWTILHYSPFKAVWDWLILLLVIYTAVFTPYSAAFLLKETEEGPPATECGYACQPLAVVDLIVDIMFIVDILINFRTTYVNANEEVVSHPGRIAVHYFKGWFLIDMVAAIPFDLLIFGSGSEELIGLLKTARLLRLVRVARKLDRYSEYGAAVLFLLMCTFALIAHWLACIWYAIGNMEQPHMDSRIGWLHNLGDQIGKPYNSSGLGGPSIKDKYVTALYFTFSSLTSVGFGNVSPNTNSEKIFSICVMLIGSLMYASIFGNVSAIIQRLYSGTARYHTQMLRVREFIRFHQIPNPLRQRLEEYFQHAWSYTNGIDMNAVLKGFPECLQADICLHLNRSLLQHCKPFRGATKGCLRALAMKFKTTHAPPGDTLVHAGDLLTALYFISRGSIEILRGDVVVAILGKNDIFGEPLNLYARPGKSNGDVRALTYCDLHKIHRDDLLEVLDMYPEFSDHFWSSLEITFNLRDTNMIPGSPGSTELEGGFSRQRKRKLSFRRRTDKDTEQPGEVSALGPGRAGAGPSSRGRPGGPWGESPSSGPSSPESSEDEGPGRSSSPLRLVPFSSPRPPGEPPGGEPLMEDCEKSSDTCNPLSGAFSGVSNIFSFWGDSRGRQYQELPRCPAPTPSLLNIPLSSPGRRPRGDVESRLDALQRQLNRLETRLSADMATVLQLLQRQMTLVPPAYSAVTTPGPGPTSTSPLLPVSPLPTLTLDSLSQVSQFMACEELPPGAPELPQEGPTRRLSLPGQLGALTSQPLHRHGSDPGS
Turning to `O=C(Nc1ccc2ccccc2c1)c1cnccn1`, the “hERG current change (%, negative = inhibition) at 1uM” value is 6.42%.

With `COc1ccc(CNC(=O)C2(CC3CC(c4ccccc4)=NO3)CCN(C(=O)OC(C)(C)C)CC2)cc1` (centres unmarked), the “hERG current change (%, negative = inhibition) at 1uM” value is 2.59%.

As to `COc1cccc([C@@H]2CC=C(C(=O)O)CN2S(=O)(=O)c2ccc(C)cc2)c1`, the “hERG current change (%, negative = inhibition) at 1uM” value stood at 17.7%.

As for `CN(C)S(=O)(=O)c1ccc(Cl)c(NC(=O)CSc2nc3ccccc3c(=O)n2CCCN2CCOCC2)c1`, the “hERG current change (%, negative = inhibition) at 1uM” value is listed as -14.7%.

With `Cc1ccc(OCCNC(=O)c2ccc(NC(=O)CC3SC(N4CCCC4)=NC3=O)cc2)cc1` (centres unmarked), the “hERG current change (%, negative = inhibition) at 1uM” value is given as -6.94%.

As for `CCCn1c(SCC(=O)Nc2ccc(OC)cc2[N+](=O)[O-])n[nH]c1=O`, the “hERG current change (%, negative = inhibition) at 1uM” value was found to be 2.55%.

For `CC1CCCN(C(=O)c2sc3cc([N+](=O)[O-])ccc3c2Cl)C1` (centres unmarked), the “hERG current change (%, negative = inhibition) at 1uM” value is -0.9%.

As for `O=C(Cn1c(N2CCN(C/C=C/c3ccccc3)CC2)nc2ccccc21)c1ccccc1`, the “hERG current change (%, negative = inhibition) at 1uM” value is reported as -32%.

Turning to `COCCCn1c(C)nnc1SCc1ccc(C(C)(C)C)cc1`, the “hERG current change (%, negative = inhibition) at 1uM” value stood at 3.95%.

As to `c1ccc(-c2noc(C3CCCCC3)n2)nc1`, the “hERG current change (%, negative = inhibition) at 1uM” value worked out at 15.6%.

Take `CC(C)OCCCNC(=S)N1CCC(C(=O)c2ccc(Cl)cc2)CC1`: the “hERG current change (%, negative = inhibition) at 1uM” value is -3.94%.

Take `O=C(Oc1ccc(F)cc1)c1ccc2c(=O)n3c(nc2c1)CCC3`: the “hERG current change (%, negative = inhibition) at 1uM” value is reported as 5.84%.

For `Cc1c(C(C)(C)O)[nH]c2cc(C(F)(F)F)ccc12`, the “hERG current change (%, negative = inhibition) at 1uM” value is given as 21.4%.

Turning to `Cc1cc(NCCO)nc(-n2nc(C)cc2C)n1`, the “hERG current change (%, negative = inhibition) at 1uM” value is -7.57%.

Take `COc1ccc(OC)c(NC(=S)N2CCN(C(=O)C3CCCO3)CC2)c1` (centres unmarked): the “hERG current change (%, negative = inhibition) at 1uM” value is reported as 7.45%.

For `CC(C(=O)NC1CCCCC1)N1CCN(S(=O)(=O)c2cccs2)CC1` (centres unmarked), the “hERG current change (%, negative = inhibition) at 1uM” value is -4.21%.

Regarding `CCOC(=O)CNC(=O)CNC(=O)C(Cc1ccc(N(CCCl)CCCl)cc1)NC(C)=O` (centres unmarked), the “hERG current change (%, negative = inhibition) at 1uM” value was 12.3%.

Consider `COC(=O)c1nn(-c2ccccc2)c(=O)cc1Oc1ccccc1`, for which the “hERG current change (%, negative = inhibition) at 1uM” value is given as 3.51%.

On to `CC(CCc1ccccc1)NS(=O)(=O)c1ccc(Cl)c(C(=O)O)c1` (centres unmarked), for which the “hERG current change (%, negative = inhibition) at 1uM” value was found to be 8.64%.

As for `C(=N\Nc1nc(Nc2ccccc2)nc(N2CCCCC2)n1)/c1ccco1`, the “hERG current change (%, negative = inhibition) at 1uM” value amounted to 8.56%.

As to `CCc1ccc(NC(=O)Cn2nnc(C(=O)NCc3ccc4c(c3)OCO4)c2N)cc1`, the “hERG current change (%, negative = inhibition) at 1uM” value is recorded as 7.75%.

In the case of `COC(=O)C1=C(C)N=C2SC(C)C(=O)N2C1c1cccs1` (centres unmarked), the “hERG current change (%, negative = inhibition) at 1uM” value turned out to be 13.4%.

`CCC(=O)N1CCc2cc(S(=O)(=O)CCC(=O)Nc3c(C)n(C)n(-c4ccccc4)c3=O)ccc21`: the “hERG current change (%, negative = inhibition) at 1uM” value turned out to be 4.97%.

Consider `CCOc1ccc(Nc2nnc(Cc3ccc(OC)cc3)c(=O)[nH]2)cc1`, for which the “hERG current change (%, negative = inhibition) at 1uM” value is 13.1%.

In the case of `Cc1nn2c3c(cnc2c1-c1ccccc1)C(=O)CC(c1ccco1)C3` (centres unmarked), the “hERG current change (%, negative = inhibition) at 1uM” value was 3.72%.

Take `C/C(=N\NC(=O)c1ccc2c(c1)OCO2)c1ccc(C(=O)O)s1`: the “hERG current change (%, negative = inhibition) at 1uM” value is listed as 8.36%.

Take `O=C(O)c1ccc(C2(c3ccc(C(=O)O)cc3)OC(=O)c3ccccc32)cc1`: the “hERG current change (%, negative = inhibition) at 1uM” value turned out to be 8.81%.

For `O=C(NCCc1ccccc1)c1ccccc1NC(=O)C1CC=CCC1C(=O)O` (centres unmarked), the “hERG current change (%, negative = inhibition) at 1uM” value is 20.9%.

As to `CC1(C)Cc2c(c(-c3ccccc3)nc3sc4c(=O)[nH]c(=S)[nH]c4c23)CO1`, the “hERG current change (%, negative = inhibition) at 1uM” value was -33%.

As to `COc1ccccc1NC(=O)C(C)NC(c1ccccc1)c1ccccc1` (centres unmarked), the “hERG current change (%, negative = inhibition) at 1uM” value is reported as 12.3%.

For `CC(C)(C)NC(=O)COc1ccc(-c2ccccc2)cc1`, the “hERG current change (%, negative = inhibition) at 1uM” value is given as 3.29%.

In the case of `NC(=O)NC(=O)COC(=O)CCSc1ccccc1`, the “hERG current change (%, negative = inhibition) at 1uM” value was 23.2%.

Turning to `CC(C)C(=O)N1CCN(c2nc(-c3ccccc3)c3c(c2C#N)CCCC3)CC1`, the “hERG current change (%, negative = inhibition) at 1uM” value was -10.1%.

In the case of `Cc1cccc(C)c1OCC(=O)Nc1oc(-c2ccccc2)c(-c2ccccc2)c1C#N`, the “hERG current change (%, negative = inhibition) at 1uM” value is given as 14.3%.

For the molecule `Cc1cccnc1CNC(=O)C1CCC(=O)N(CCc2cccc(F)c2)C1` (centres unmarked), the “hERG current change (%, negative = inhibition) at 1uM” value is recorded as 8.69%.

Consider `CNC(=O)c1c(NC(=O)CS(=O)(=O)c2ccc(F)cc2)sc(C)c1C`, for which the “hERG current change (%, negative = inhibition) at 1uM” value is 4.76%.

Consider `CC(=O)CC(=O)Nc1ccc(Cl)cn1`, for which the “hERG current change (%, negative = inhibition) at 1uM” value was determined as 9.79%.

On to `O=S(=O)(NCc1csc(-c2cccnc2)n1)c1ccc(Cl)s1`, for which the “hERG current change (%, negative = inhibition) at 1uM” value is on record as -18.5%.

For the molecule `COc1ccc2c(c1)c(C(=O)CN1CCN(Cc3ccccc3)CC1)c(C)n2C`, the “hERG current change (%, negative = inhibition) at 1uM” value was determined as 6.29%.

Turning to `Cc1cc(C(=O)NCCCn2ccnc2)sc1-c1ccccc1`, the “hERG current change (%, negative = inhibition) at 1uM” value is 7.18%.

For `COc1cc(C)ccc1OCCOCCOc1c(C)cc(C)cc1Br`, the “hERG current change (%, negative = inhibition) at 1uM” value is given as 13.1%.

`Nc1c(C(=O)c2ccccc2)oc2ccc(Br)cc12`: the “hERG current change (%, negative = inhibition) at 1uM” value is on record as 7.38%.

For the molecule `CCOC(=O)C1=C(C)Nc2ccccc2N=C1NC(=O)C(CC)c1ccccc1` (centres unmarked), the “hERG current change (%, negative = inhibition) at 1uM” value is 5.55%.

For `Cc1cc(Br)c2c(c1)C(O)(N1CCCCC1C)C(=O)N2` (centres unmarked), the “hERG current change (%, negative = inhibition) at 1uM” value was determined as 2.8%.

For the molecule `COc1ccc(OCCN(C)CC(=O)Nc2ccccc2SC)cc1`, the “hERG current change (%, negative = inhibition) at 1uM” value was 3.45%.

With `NS(=O)(=O)c1ccc(CNC(=O)CCCSc2ccccc2)cc1`, the “hERG current change (%, negative = inhibition) at 1uM” value came out at 17%.

In the case of `COc1ccc(Cc2nnc(NC(=O)CSc3ccccc3)s2)cc1OC`, the “hERG current change (%, negative = inhibition) at 1uM” value came to 16.4%.

Take `O=[N+]([O-])[N-][n+]1cnn(Cc2ccc(Cl)cc2)c1`: the “hERG current change (%, negative = inhibition) at 1uM” value came out at 11.3%.

Consider `CCc1nc(N2CCC(C)CC2)c2oc3ccccc3c2n1.Cl`, for which the “hERG current change (%, negative = inhibition) at 1uM” value is 7.03%.

As to `Cc1ccc(S(=O)(=O)N(CC(=O)Nc2ccc(C)cc2C)C(=O)N2CCN(C)CC2)cc1`, the “hERG current change (%, negative = inhibition) at 1uM” value is on record as 7.52%.

On to `Cn1c(=O)c2c(nc(SCc3cccnc3)n2Cc2ccc(F)cc2)n(C)c1=O`, for which the “hERG current change (%, negative = inhibition) at 1uM” value was -15.5%.

Turning to `COc1cc(CNc2cccc(C(=O)O)c2)cc(Br)c1OCC(=O)NC(C)(C)C`, the “hERG current change (%, negative = inhibition) at 1uM” value was determined as 1.82%.

Regarding `Cc1ccc(/C=C(\C#N)C(=O)NCC2CCCO2)o1` (centres unmarked), the “hERG current change (%, negative = inhibition) at 1uM” value stood at 10.8%.

On to `CCn1nc(C)c(CN2CCC(n3nccc3NC(=O)CCCc3ccccc3)CC2)c1C`, for which the “hERG current change (%, negative = inhibition) at 1uM” value is given as -4.43%.

Regarding `CCN1C(=O)c2cccc3c(NC(=O)c4ccc5c(c4)OCCO5)ccc1c23`, the “hERG current change (%, negative = inhibition) at 1uM” value was -0.116%.

Consider `Cc1ccc(C(=O)Nc2cccc(O)c2)cc1S(=O)(=O)N1CCCCCC1`, for which the “hERG current change (%, negative = inhibition) at 1uM” value is reported as 15.3%.
